Assay results published in the supplement of paper PMC12067230.
The data scatter; read single values as rough.

assay: amyloid nucleation score relative to library mode (yeast Sup35 reporter selection) (log enrichment difference); higher = more amyloid nucleation; sequences are the first 22 residues of the Bri2 peptide extended by up to 12 random residues; conditions: random library (experiment): 1;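 active = nucleation score significantly above 0 at FDR 0.05; inactive = not significantly above 0 or absent from output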
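Further: [psi-pin-] Saccharomyces cerevisiae expressing SupN fusions, induced by 100 µM Cu2SO4, selected 7 d at 30 °C without adenine and uracil, scored by deep sequencing of output versus input.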

Row | Sequence | amyloid nucleation score
1 | EASNCFAIRHFENKFAVETLICRLVMLRMLVRGR | inactive
2 | EASNCFAIRHFENKFAVETLICLESA | inactive
3 | EASNCFAIRHFENKFAVETLICQTTSSLWCLCGV | 0.0817
4 | EASNCFAIRHFENKFAVETLICYDVDGQDRYFCG | inactive
5 | EASNCFAIRHFENKFAVETLICKSRRGTAVKGKL | -0.338
6 | EASNCFAIRHFENKFAVETLICELWLIEKLGFEG | -0.324
7 | EASNCFAIRHFENKFAVETLICRSLNATSLMTLL | -0.487
8 | EASNCFAIRHFENKFAVETLICNSMSMDQEWSSR | 2.18
9 | EASNCFAIRHFENKFAVETLICMTASGGTGSWEG | inactive
10 | EASNCFAIRHFENKFAVETLICTTWLAWDDGRWD | 2.42
11 | EASNCFAIRHFENKFAVETLICGISLGHASSQPR | 5.11
12 | EASNCFAIRHFENKFAVETLICYQAFVWGWNIWA | inactive
13 | EASNCFAIRHFENKFAVETLICWLFTRRVVFGGL | inactive
14 | EASNCFAIRHFENKFAVETLICRLE | inactive
15 | EASNCFAIRHFENKFAVETLICTMRYRVWIRVHG | inactive
16 | EASNCFAIRHFENKFAVETLICVCVPMVNVASKK | 8.18

Row | Sequence | amyloid nucleation score
17 | EASNCFAIRHFENKFAVETLICCHMPN | 6.57
18 | EASNCFAIRHFENKFAVETLICAHKVNRC | 3.77
19 | EASNCFAIRHFENKFAVETLICDHGPWYSMHMFG | 0.307
20 | EASNCFAIRHFENKFAVETLICFRHVWCHALILA | inactive
21 | EASNCFAIRHFENKFAVETLICQGVVLLVMHAFA | inactive
22 | EASNCFAIRHFENKFAVETLICLQKACLKFHHTR | 0.514
23 | EASNCFAIRHFENKFAVETLICDDSICRMMTHSG | inactive
24 | EASNCFAIRHFENKFAVETLICVYCVIRFRSNGG | inactive
25 | EASNCFAIRHFENKFAVETLICRRCWCKCIAR | inactive
26 | EASNCFAIRHFENKFAVETLICVCQGV | 2.4
27 | EASNCFAIRHFENKFAVETLICRVRLTCRAVVGA | inactive
28 | EASNCFAIRHFENKFAVETLICLSRGNAFLRKTR | inactive
29 | EASNCFAIRHFENKFAVETLICARLSPGGMEQQ | inactive
30 | EASNCFAIRHFENKFAVETLICEWRVSLRVSDWG | 0.00985
31 | EASNCFAIRHFENKFAVETLICMSPLLEVMLLLL | 3.51
32 | EASNCFAIRHFENKFAVETLICPSFRQHMCVHGT | 2.93

same assay, conditions: random library (experiment): 2

Row | Sequence | amyloid nucleation score
33 | EASNCFAIRHFENKFAVETLICRLSWIHRGYPFY | inactive
34 | EASNCFAIRHFENKFAVETLICFLTVTE | 3.76
35 | EASNCFAIRHFENKFAVETLICVHVTDSGIRCSK | 2.86
36 | EASNCFAIRHFENKFAVETLICVAFRNRWDYYPL | 0.916
37 | EASNCFAIRHFENKFAVETLICHRAMYTSRGNKV | inactive
38 | EASNCFAIRHFENKFAVETLICFSRIVI | inactive
39 | EASNCFAIRHFENKFAVETLICVKYMGIPEDANW | -0.519
40 | EASNCFAIRHFENKFAVETLICLSEKMLYPVYGD | inactive
41 | EASNCFAIRHFENKFAVETLICWYFFSYCLGREV | inactive
42 | EASNCFAIRHFENKFAVETLICKYLSHARIYRDL | inactive
43 | EASNCFAIRHFENKFAVETLICFC | 6.71
44 | EASNCFAIRHFENKFAVETLICQMVFFLFADAPG | inactive
45 | EASNCFAIRHFENKFAVETLICWSVKFSVLRGYE | 1.29
46 | EASNCFAIRHFENKFAVETLICVSVFSSYFYSFR | inactive
47 | EASNCFAIRHFENKFAVETLICLIDYNVSNPLYG | 0.892
48 | EASNCFAIRHFENKFAVETLICDPCVSYGSGGVS | inactive
49 | EASNCFAIRHFENKFAVETLICFKYVLSAICSHS | inactive
50 | EASNCFAIRHFENKFAVETLICDSCTPVLRILIH | inactive
51 | EASNCFAIRHFENKFAVETLICVMPHFFLCSVPD | 6.85
52 | EASNCFAIRHFENKFAVETLICAPPTYD | inactive
53 | EASNCFAIRHFENKFAVETLICDTVKYC | -0.385
54 | EASNCFAIRHFENKFAVETLICRTCIIVACCDGN | 5.55
55 | EASNCFAIRHFENKFAVETLICLY | inactive
56 | EASNCFAIRHFENKFAVETLICCFS | 2.37
57 | EASNCFAIRHFENKFAVETLICFGAPWEPLCSPG | -0.174
58 | EASNCFAIRHFENKFAVETLICVCTTSFVEYRFI | inactive
59 | EASNCFAIRHFENKFAVETLICKVPVLLDVCLAG | inactive

same assay, conditions: random library (experiment): 3

Row | Sequence | amyloid nucleation score
60 | EASNCFAIRHFENKFAVETLICAVSYYRQVACRG | inactive
61 | EASNCFAIRHFENKFAVETLICRFWQQWLAGGEV | inactive
62 | EASNCFAIRHFENKFAVETLICLPYCNSTPFFAS | 6.88
63 | EASNCFAIRHFENKFAVETLICYVRGFWMLHVWV | inactive
64 | EASNCFAIRHFENKFAVETLICPIIMFYYGAHRG | 6.95
65 | EASNCFAIRHFENKFAVETLICLGALASARVGDL | 6.9
66 | EASNCFAIRHFENKFAVETLICRRYRRDPVSNNG | inactive
67 | EASNCFAIRHFENKFAVETLICHYPGIPPCVIGS | inactive
68 | EASNCFAIRHFENKFAVETLICRLGLLGTTVHRV | inactive
69 | EASNCFAIRHFENKFAVETLICIMTDQCWGTAGT | 3.59
70 | EASNCFAIRHFENKFAVETLICPRRLAVPWAVRA | inactive
71 | EASNCFAIRHFENKFAVETLICELSM | inactive
72 | EASNCFAIRHFENKFAVETLICFRYPDRY | 4.06
73 | EASNCFAIRHFENKFAVETLICVVGMCSYASELW | 4.06
74 | EASNCFAIRHFENKFAVETLICAPVVSLTLQWS | 6
75 | EASNCFAIRHFENKFAVETLICTVAHRRPLRG | inactive
76 | EASNCFAIRHFENKFAVETLICAPHIRAMELNER | inactive
77 | EASNCFAIRHFENKFAVETLICNQPVRGRQGGVW | inactive
78 | EASNCFAIRHFENKFAVETLICWCDLTRERWVPD | inactive
79 | EASNCFAIRHFENKFAVETLICVDRCMNPNLTTA | inactive
80 | EASNCFAIRHFENKFAVETLICNLPCVLYMRVGC | inactive
81 | EASNCFAIRHFENKFAVETLICVGLSHLRGAERT | -0.119
82 | EASNCFAIRHFENKFAVETLICGLS | inactive
83 | EASNCFAIRHFENKFAVETLICPVRV | 0.0367
84 | EASNCFAIRHFENKFAVETLICRKFMCRCRVVFE | 2.63
85 | EASNCFAIRHFENKFAVETLICVLVDWDAPLSCV | 3.5
86 | EASNCFAIRHFENKFAVETLICRRSSVEHGRW | 0.831
87 | EASNCFAIRHFENKFAVETLICVVWVQTVVCA | inactive
